# The other results are listed elsewhere or left out.
# Experiments:
# Experiment in all cases: glycan array binding signal (z-score within array); higher = stronger binding
# Conditions in all cases: glycan notation: IUPAC condensed, linker removed
# [1] = target: Gal(b1-4)GlcNAc(b1-3)Gal(b1-4)GlcNAc(b1-3)Gal(b1-4)GlcNAc(b1-3)Gal(b1-4)GlcNAc(b1-2)[Gal(b1-4)GlcNAc(b1-3)Gal(b1-4)GlcNAc(b1-3)Gal(b1-4)GlcNAc(b1-3)Gal(b1-4)GlcNAc(b1-6)]Man(a1-6)[Gal(b1-4)GlcNAc(b1-3)Gal(b1-4)GlcNAc(b1-3)Gal(b1-4)GlcNAc(b1-3)Gal(b1-4)GlcNAc(b1-2)Man(a1-3)]Man(b1-4)GlcNAc(b1-4)[Fuc(a1-6)]GlcNAc
# Procedure, shortened: (§1)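 Glycan array data were curated from 3228 arrays in the Consortium for Functional Glycomics database and kept only where the protein sequence was available. Glycan names were converted to IUPAC-condensed notation, and columns mapping to the same glycan were averaged. The binding signal is a within-array Z-score, averaged across arrays of the same protein sequence at different concentrations or buffers and across linkers. Negative Z-scores can be read as non-binding.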
# [2] = target: Gal(b1-4)GlcNAc(b1-3)Gal(b1-4)GlcNAc(b1-3)Gal(b1-4)GlcNAc(b1-3)Gal(b1-4)GlcNAc(b1-3)Gal(b1-4)GlcNAc(b1-2)Man(a1-3)[Gal(b1-4)GlcNAc(b1-3)Gal(b1-4)GlcNAc(b1-3)Gal(b1-4)GlcNAc(b1-3)Gal(b1-4)GlcNAc(b1-3)Gal(b1-4)GlcNAc(b1-2)Man(a1-6)]Man(b1-4)GlcNAc(b1-4)GlcNAc
# Procedure, shortened: as §1
# [3] = target: Gal(b1-4)GlcNAc(b1-3)Gal(b1-4)GlcNAc(b1-3)Gal(b1-4)GlcNAc(b1-3)Gal(b1-4)GlcNAc(b1-3)Gal(b1-4)GlcNAc(b1-2)Man(a1-3)[Gal(b1-4)GlcNAc(b1-3)Gal(b1-4)GlcNAc(b1-3)Gal(b1-4)GlcNAc(b1-3)Gal(b1-4)GlcNAc(b1-3)Gal(b1-4)GlcNAc(b1-2)Man(a1-6)]Man(b1-4)GlcNAc(b1-4)[Fuc(a1-6)]GlcNAc
# Procedure, shortened: as §1
# [4] = target: Gal(b1-4)GlcNAc(b1-3)Gal(b1-4)GlcNAc(b1-3)Gal(b1-4)GlcNAc(b1-3)Gal(b1-4)GlcNAc(b1-3)Gal(b1-4)GlcNAc(b1-2)[Gal(b1-4)GlcNAc(b1-3)Gal(b1-4)GlcNAc(b1-3)Gal(b1-4)GlcNAc(b1-3)Gal(b1-4)GlcNAc(b1-3)Gal(b1-4)GlcNAc(b1-6)]Man(a1-6)[Gal(b1-4)GlcNAc(b1-3)Gal(b1-4)GlcNAc(b1-3)Gal(b1-4)GlcNAc(b1-3)Gal(b1-4)GlcNAc(b1-3)Gal(b1-4)GlcNAc(b1-2)Man(a1-3)]Man(b1-4)GlcNAc(b1-4)[Fuc(a1-6)]GlcNAc
# Procedure, shortened: as §1
# [5] = target: Gal(b1-4)GlcNAc(b1-3)Gal(b1-4)GlcNAc(b1-3)Gal(b1-4)GlcNAc(b1-3)Gal(b1-4)GlcNAc(b1-3)Gal(b1-4)GlcNAc(b1-3)Gal(b1-4)GlcNAc(b1-2)Man(a1-3)[Gal(b1-4)GlcNAc(b1-3)Gal(b1-4)GlcNAc(b1-3)Gal(b1-4)GlcNAc(b1-3)Gal(b1-4)GlcNAc(b1-3)Gal(b1-4)GlcNAc(b1-3)Gal(b1-4)GlcNAc(b1-2)Man(a1-6)]Man(b1-4)GlcNAc(b1-4)GlcNAc
# Procedure, shortened: as §1
# [6] = target: Gal(b1-4)GlcNAc(b1-3)Gal(b1-4)GlcNAc(b1-3)GalNAc
# Procedure, shortened: as §1
# [7] = target: Gal(b1-4)GlcNAc(b1-3)Gal(b1-4)GlcNAc(b1-3)[Gal(b1-4)GlcNAc(b1-3)Gal(b1-4)GlcNAc(b1-6)]GalNAc
# Procedure, shortened: as §1
# [8] = target: Gal(b1-4)GlcNAc(b1-3)Gal(b1-4)GlcNAc(b1-6)[Gal(b1-3)]GalNAc
# Procedure, shortened: as §1
# [9] = target: Gal(b1-4)GlcNAc(b1-3)Gal(b1-4)[Fuc(a1-3)]GlcNAc(b1-3)Gal(b1-4)[Fuc(a1-3)]GlcNAc
# Procedure, shortened: as §1
# [10] = target: Gal(b1-4)GlcNAc(b1-3)GalNAc
# Procedure, shortened: as §1
# [11] = target: Gal(b1-4)GlcNAc(b1-3)[Fuc(a1-3)GlcNAc(b1-6)]Gal(b1-4)Glc
# Procedure, shortened: as §1
# [12] = target: Gal(b1-4)GlcNAc(b1-3)[Gal(b1-4)GlcNAc(b1-6)]Gal(b1-4)GlcNAc
# Procedure, shortened: as §1
# [13] = target: Gal(b1-4)GlcNAc(b1-3)[GlcNAc(b1-6)]Gal(b1-4)GlcNAc
# Procedure, shortened: as §1
# [14] = target: Gal(b1-4)GlcNAc(b1-6)Gal(b1-4)GlcNAc
# Procedure, shortened: as §1
# [15] = target: Gal(b1-4)GlcNAc(b1-6)GalNAc
# Procedure, shortened: as §1
# [16] = target: Gal(b1-4)GlcNAc(b1-6)[Gal(b1-3)]GalNAc
# Procedure, shortened: as §1
# [17] = target: Gal(b1-4)GlcNAc(b1-6)[Gal(b1-4)GlcNAc(b1-3)]GalNAc
# Procedure, shortened: as §1
# Gal(b1-4)GlcNAc6P = target: Gal(b1-4)GlcNAc6P
# Procedure, shortened: as §1
# Gal(b1-6)Gal = target: Gal(b1-6)Gal
# Procedure, shortened: as §1
# Gal3S(b1-3)GalNAc = target: Gal3S(b1-3)GalNAc
# Procedure, shortened: as §1
# Gal3S(b1-3)GlcNAc = target: Gal3S(b1-3)GlcNAc
# Procedure, shortened: as §1
# [18] = target: Gal3S(b1-3)[Fuc(a1-4)]GlcNAc
# Procedure, shortened: as §1
# Gal3S(b1-4)Glc = target: Gal3S(b1-4)Glc
# Procedure, shortened: as §1
binder,measurement,setting,value
Clrb (Mus musculus) (protein) ITGATKTEQIPVNKTYAACPQNWIGVENKCFYFSEYPSNWTFAQAFCMAQEAQLARFDNQDELNFLMRYKANFDSWIGLHRESSEHPWKWTDNTEYNNTIPIRGEERFAYLNNNGISSTRIYSLRMWICSKLNSYSLHCQTPFFPSGTKHHHHHHHHG,glycan array binding signal (z-score),[1],-0.417
same,glycan array binding signal (z-score),[2],-0.264
same,glycan array binding signal (z-score),[3],-0.223
same,glycan array binding signal (z-score),[4],-0.263
same,glycan array binding signal (z-score),[5],-0.285
same,glycan array binding signal (z-score),[6],-0.351
same,glycan array binding signal (z-score),[7],-0.21
same,glycan array binding signal (z-score),[8],-0.469
same,glycan array binding signal (z-score),[9],-0.386
same,glycan array binding signal (z-score),[10],-0.288
same,glycan array binding signal (z-score),[11],-0.386
same,glycan array binding signal (z-score),[12],-0.387
same,glycan array binding signal (z-score),[13],5.13
same,glycan array binding signal (z-score),[14],-0.431
same,glycan array binding signal (z-score),[15],0.933
same,glycan array binding signal (z-score),[16],-0.241
same,glycan array binding signal (z-score),[17],-0.272
same,glycan array binding signal (z-score),Gal(b1-4)GlcNAc6P,-0.237
same,glycan array binding signal (z-score),Gal(b1-6)Gal,-0.443
same,glycan array binding signal (z-score),Gal3S(b1-3)GalNAc,-0.054
same,glycan array binding signal (z-score),Gal3S(b1-3)GlcNAc,-0.267
same,glycan array binding signal (z-score),[18],-0.389
same,glycan array binding signal (z-score),Gal3S(b1-4)Glc,-0.124

# Source: the supplement of paper PMC8728848
